Measured values reported in the supplement of paper PMC10126150.
Values marked as one replicate rest on one cluster of the flow cell; about a third of the high ones do not repeat.
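Note: ATP exposure 15 min at 22 °C before imaging.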

What follows are sequences tested on ATP (assay: switch fluorescence ratio, 500 uM ATP over buffer (Cy3 cluster intensity, sum of 5 cycles each) (fold (ratio)); higher = stronger signal-on switching upon ATP binding; sequences stand for … in TCGTCGGCAGCGTCAGATGTGTATAAGAGACAGTTTTTTTTTTTTTTTTTTTTTTTTT…TC). Conditions: aptamer strand: ATP DNA aptamer (quencher-CACCTGGGGGAGTATTGCGGAGGAAGG + anchor), 100 nM annealed; ATP concentration: 500 uM; one replicate.
In short: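 Clusters carrying Cy3-labelled switching strands on a modified Illumina MiSeq flow-cell were annealed to 100 nM quencher-labelled ATP aptamer and imaged in selection buffer. They were imaged again after 15 min with 500 uM ATP at 22 °C, over five buffer/ATP cycles with NaOH stripping and re-annealing in between. For each cluster, the fluorescence ratio is the summed Cy3 intensity of the target cycles divided by that of the buffer cycles, averaged per switch-domain sequence. Clusters outside 100-1000 RFU were left out.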
In the case of AGGTTACTA, the switch fluorescence ratio is reported as 1.01. AGGTTAGGAG was tested, and the switch fluorescence ratio was 1.02. Work on AGGTTAGGAT yielded a switch fluorescence ratio of 1.01. AGGTTCGGT showed a switch fluorescence ratio of 0.976. For AGGTTCTGGA, the switch fluorescence ratio was 1.02. In the case of AGGTTGGGCT, the switch fluorescence ratio is reported as 0.974. AGGTTGGTAG was tested, and the switch fluorescence ratio was 0.984. With AGGTTGTGTT the switch fluorescence ratio was 0.966. AGGTTTGTTC gave a switch fluorescence ratio of 0.952. With AGTAAATTGG the switch fluorescence ratio was 0.929. AGTAACGGGA gave a switch fluorescence ratio of 1.01. AGTAAGAAAG showed a switch fluorescence ratio of 1.01. In the case of AGTAAGATTC, the switch fluorescence ratio is reported as 1.02. Work on AGTAATTATA yielded a switch fluorescence ratio of 1.01. Sequence AGTACCAAAT has a switch fluorescence ratio of 1.03. In the case of AGTACGGAT, the switch fluorescence ratio is reported as 0.986. AGTACGTGG gave a switch fluorescence ratio of 1. For AGTACTAGAC, the switch fluorescence ratio was 1.06. For AGTAGACTTT, the switch fluorescence ratio was 0.903. Sequence AGTAGCAAGG has a switch fluorescence ratio of 1.18. With AGTAGGCTTA the switch fluorescence ratio was 0.995. Work on AGTAGGTTTA yielded a switch fluorescence ratio of 0.994. Work on AGTAGGTTTC yielded a switch fluorescence ratio of 1.02. Sequence AGTATACGAC has a switch fluorescence ratio of 1.12. AGTATACTTA showed a switch fluorescence ratio of 1.01. AGTATCCAC was tested, and the switch fluorescence ratio was 1.03. Work on AGTATCGCCC yielded a switch fluorescence ratio of 0.991. For AGTATCGTTG, the switch fluorescence ratio was 0.968. AGTATCTCGG was tested, and the switch fluorescence ratio was 1.01. Work on AGTATCTTA yielded a switch fluorescence ratio of 1.02. AGTATGAAGT showed a switch fluorescence ratio of 0.997. AGTATGAGAA was tested, and the switch fluorescence ratio was 0.977. AGTATGATGT was tested, and the switch fluorescence ratio was 0.968. AGTATGCGGG showed a switch fluorescence ratio of 1.04. With AGTATGGCTC the switch fluorescence ratio was 0.942. With AGTATTTCA the switch fluorescence ratio was 0.953. With AGTCAAAATC the switch fluorescence ratio was 0.994. AGTCAAAATT showed a switch fluorescence ratio of 1.01. Work on AGTCAACCA yielded a switch fluorescence ratio of 0.981. For AGTCAAGACA, the switch fluorescence ratio was 1.03. AGTCAATTTG showed a switch fluorescence ratio of 1.05. With AGTCAGAGGG the switch fluorescence ratio was 0.973. Sequence AGTCAGTC has a switch fluorescence ratio of 1.04. For AGTCATTATC, the switch fluorescence ratio was 0.965. For AGTCCATCCA, the switch fluorescence ratio was 1.04. AGTCCCATTT was tested, and the switch fluorescence ratio was 1.02. AGTCCCCAAG was tested, and the switch fluorescence ratio was 3.68. For AGTCCCGGAG, the switch fluorescence ratio was 1.03. Work on AGTCCGTGCA yielded a switch fluorescence ratio of 1.02. Work on AGTCCGTGTT yielded a switch fluorescence ratio of 1.03. AGTCCGTTAT gave a switch fluorescence ratio of 1.02. In the case of AGTCCTATT, the switch fluorescence ratio is reported as 0.968. AGTCCTCCCG showed a switch fluorescence ratio of 1.4. In the case of AGTCCTCTTT, the switch fluorescence ratio is reported as 0.975. With AGTCGATGCC the switch fluorescence ratio was 0.991. AGTCGCAATG was tested, and the switch fluorescence ratio was 1.65. AGTCGCGGGA was tested, and the switch fluorescence ratio was 1.02. AGTCGGCCGC gave a switch fluorescence ratio of 0.924. AGTCGGCGTG gave a switch fluorescence ratio of 1.02. AGTCGTCCTG was tested, and the switch fluorescence ratio was 1.03. AGTCGTGGTA gave a switch fluorescence ratio of 0.993. In the case of AGTCGTGTGG, the switch fluorescence ratio is reported as 1.07. Sequence AGTCTAATGC has a switch fluorescence ratio of 0.87. AGTCTAATGG was tested, and the switch fluorescence ratio was 0.947. AGTCTAGTGC gave a switch fluorescence ratio of 0.948. AGTCTATTGG showed a switch fluorescence ratio of 1.02. AGTCTCTATA was tested, and the switch fluorescence ratio was 1.03. AGTCTTAGT was tested, and the switch fluorescence ratio was 1. Work on AGTCTTCCGA yielded a switch fluorescence ratio of 1.2. AGTCTTTGCT gave a switch fluorescence ratio of 1.02. With AGTGAAGTGC the switch fluorescence ratio was 0.951. With AGTGACCGT the switch fluorescence ratio was 1.01. With AGTGAGAACG the switch fluorescence ratio was 1.01. Work on AGTGAGAGCT yielded a switch fluorescence ratio of 1.03. Sequence AGTGAGCTAA has a switch fluorescence ratio of 1.02. In the case of AGTGAGGTTT, the switch fluorescence ratio is reported as 0.978. For AGTGATACTT, the switch fluorescence ratio was 1.04. Sequence AGTGATGTA has a switch fluorescence ratio of 0.969. AGTGATTCAG gave a switch fluorescence ratio of 0.949. For AGTGATTTAC, the switch fluorescence ratio was 1.03. AGTGCAAGG gave a switch fluorescence ratio of 1.03. Sequence AGTGCAAGTC has a switch fluorescence ratio of 1.03. Work on AGTGCCCTGC yielded a switch fluorescence ratio of 1.01. Sequence AGTGCCGGAG has a switch fluorescence ratio of 0.981. With AGTGCGATAT the switch fluorescence ratio was 1.23. AGTGCGCAAA showed a switch fluorescence ratio of 1.25. AGTGCGGAT gave a switch fluorescence ratio of 1.03. AGTGGAAAA gave a switch fluorescence ratio of 0.989. In the case of AGTGGAACGC, the switch fluorescence ratio is reported as 0.997. AGTGGATGCG was tested, and the switch fluorescence ratio was 1.04. AGTGGCTCTG gave a switch fluorescence ratio of 1.01. With AGTGGCTTGC the switch fluorescence ratio was 0.985. In the case of AGTGGGAAGT, the switch fluorescence ratio is reported as 0.998. With AGTGGGACGT the switch fluorescence ratio was 0.977. Sequence AGTGGGCTGC has a switch fluorescence ratio of 0.946. AGTGGGGTAT was tested, and the switch fluorescence ratio was 1.01. AGTGGTTAC gave a switch fluorescence ratio of 1.03. For AGTGTACGTC, the switch fluorescence ratio was 1.02. AGTGTCACAC was tested, and the switch fluorescence ratio was 1.01. Work on AGTGTCACG yielded a switch fluorescence ratio of 1. For AGTGTCTGCC, the switch fluorescence ratio was 1.04. In the case of AGTGTCTTGG, the switch fluorescence ratio is reported as 1. With AGTGTGGGTG the switch fluorescence ratio was 0.997. Work on AGTGTTCGGA yielded a switch fluorescence ratio of 1.03. For AGTGTTCTG, the switch fluorescence ratio was 0.958. In the case of AGTGTTCTTG, the switch fluorescence ratio is reported as 1.04. For AGTGTTGAAG, the switch fluorescence ratio was 1.01. In the case of AGTTAAGGGC, the switch fluorescence ratio is reported as 1. AGTTAATTCA gave a switch fluorescence ratio of 0.962. For AGTTACAAGG, the switch fluorescence ratio was 1.05. For AGTTACAGAC, the switch fluorescence ratio was 1.04. With AGTTAGATTT the switch fluorescence ratio was 0.976. For AGTTATGGTT, the switch fluorescence ratio was 0.927. In the case of AGTTATTCC, the switch fluorescence ratio is reported as 1.18. For AGTTCACGCT, the switch fluorescence ratio was 1. AGTTCACTGT gave a switch fluorescence ratio of 1.01. With AGTTCATACA the switch fluorescence ratio was 1.03. Sequence AGTTCATAGG has a switch fluorescence ratio of 0.987. Sequence AGTTCCATGA has a switch fluorescence ratio of 0.986. AGTTCCCATT was tested, and the switch fluorescence ratio was 1.05. AGTTCCGCGT was tested, and the switch fluorescence ratio was 1.22. Sequence AGTTCGACTT has a switch fluorescence ratio of 0.956. In the case of AGTTCGGACT, the switch fluorescence ratio is reported as 1.01. AGTTCGTTGT gave a switch fluorescence ratio of 1.01. Sequence AGTTGACAGA has a switch fluorescence ratio of 1.01. With AGTTGACTAG the switch fluorescence ratio was 0.928. In the case of AGTTGAGGGT, the switch fluorescence ratio is reported as 1.08. For AGTTGCACCT, the switch fluorescence ratio was 1.03. Sequence AGTTGCCCCA has a switch fluorescence ratio of 0.972. AGTTGGTGTG showed a switch fluorescence ratio of 0.974. AGTTGTGGCA showed a switch fluorescence ratio of 0.977. AGTTTCAAGC showed a switch fluorescence ratio of 1.14. AGTTTCCAGT gave a switch fluorescence ratio of 0.999. AGTTTCGCAA gave a switch fluorescence ratio of 4.05. AGTTTGATCC gave a switch fluorescence ratio of 1.01. For AGTTTGGACT, the switch fluorescence ratio was 0.999. AGTTTGGAGA was tested, and the switch fluorescence ratio was 1.01. For ATAAAAGAGT, the switch fluorescence ratio was 1.03. ATAAACATAT showed a switch fluorescence ratio of 1.03. ATAAACTTGC showed a switch fluorescence ratio of 1.13. ATAAAGAATT showed a switch fluorescence ratio of 0.98. Work on ATAAAGACGC yielded a switch fluorescence ratio of 1.06. ATAAAGAGAT was tested, and the switch fluorescence ratio was 0.997. ATAAAGGAAC gave a switch fluorescence ratio of 1.02. Work on ATAAATAA yielded a switch fluorescence ratio of 0.998. Work on ATAAATCGAG yielded a switch fluorescence ratio of 0.989. In the case of ATAAATTCAG, the switch fluorescence ratio is reported as 1.03. For ATAACAGAAA, the switch fluorescence ratio was 1.06. In the case of ATAACAGAG, the switch fluorescence ratio is reported as 0.958. Work on ATAACGCCAT yielded a switch fluorescence ratio of 1.14. With ATAACGGTCT the switch fluorescence ratio was 0.991. Sequence ATAACTGGAC has a switch fluorescence ratio of 1.04. In the case of ATAACTTATG, the switch fluorescence ratio is reported as 1.03. Work on ATAAGATAGA yielded a switch fluorescence ratio of 0.983. Work on ATAAGCAGGG yielded a switch fluorescence ratio of 1.03. Sequence ATAAGCAGTG has a switch fluorescence ratio of 1.01. Work on ATAAGCGA yielded a switch fluorescence ratio of 1.07. For ATAAGCTGAG, the switch fluorescence ratio was 0.978. ATAAGGAACA gave a switch fluorescence ratio of 0.962. For ATAAGGTCTG, the switch fluorescence ratio was 0.998. ATAATAATCT showed a switch fluorescence ratio of 1.01. In the case of ATAATACGGA, the switch fluorescence ratio is reported as 1.02. Work on ATAATAGTCT yielded a switch fluorescence ratio of 1.03. ATAATGACCT was tested, and the switch fluorescence ratio was 1.47. Sequence ATAATGGGAG has a switch fluorescence ratio of 0.999. Work on ATAATTGCTA yielded a switch fluorescence ratio of 0.987. With ATAATTTTGA the switch fluorescence ratio was 1. Work on ATACACTGCA yielded a switch fluorescence ratio of 1.13. Sequence ATACATCGCG has a switch fluorescence ratio of 1.07. ATACCAAGGC was tested, and the switch fluorescence ratio was 1.07. Sequence ATACCATTAA has a switch fluorescence ratio of 0.989. In the case of ATACCCTTGC, the switch fluorescence ratio is reported as 1.5. Sequence ATACCGGCAC has a switch fluorescence ratio of 1.31. For ATACCGGCAT, the switch fluorescence ratio was 0.982. ATACCGGGAC gave a switch fluorescence ratio of 1.17. ATACCTATAA showed a switch fluorescence ratio of 0.991. For ATACCTCCGA, the switch fluorescence ratio was 2.29. For ATACCTTTGT, the switch fluorescence ratio was 0.99. Sequence ATACGACTTT has a switch fluorescence ratio of 1.08. With ATACGAGCGA the switch fluorescence ratio was 1.06. Sequence ATACGATGCG has a switch fluorescence ratio of 0.961. ATACGCAACT showed a switch fluorescence ratio of 2.14. In the case of ATACGGACAG, the switch fluorescence ratio is reported as 1.31. Sequence ATACGGGTCC has a switch fluorescence ratio of 1. Sequence ATACGGTGGC has a switch fluorescence ratio of 1.12. ATACGTACTC was tested, and the switch fluorescence ratio was 1.62. ATACGTCTTC showed a switch fluorescence ratio of 1.04. Sequence ATACTAACGT has a switch fluorescence ratio of 1.46. With ATACTCAGTT the switch fluorescence ratio was 1.07. Work on ATACTCATGT yielded a switch fluorescence ratio of 1.03. Sequence ATACTCTTCA has a switch fluorescence ratio of 1.06. ATACTGGGGG showed a switch fluorescence ratio of 1.03. With ATAGAAACT the switch fluorescence ratio was 1.21. For ATAGAACGTG, the switch fluorescence ratio was 1.01. ATAGAATCGG was tested, and the switch fluorescence ratio was 0.971. Sequence ATAGAGCTA has a switch fluorescence ratio of 1. ATAGAGTG gave a switch fluorescence ratio of 1.02. Work on ATAGATAAGT yielded a switch fluorescence ratio of 0.999. ATAGCAACG showed a switch fluorescence ratio of 1.05. Sequence ATAGCCAATC has a switch fluorescence ratio of 1.56. In the case of ATAGCGATCG, the switch fluorescence ratio is reported as 1.01.
